Reference: US20230235005A1 (INHIBRX, published 2023)

Biological target: T1, Histidine-tagged CD25 (UniProt P01589 22-217, limits assumed)
T1 construct: Immobilized in Biolayer Interferometry (ForteBio); not shown: histidine tag
T1 sequence (looked up): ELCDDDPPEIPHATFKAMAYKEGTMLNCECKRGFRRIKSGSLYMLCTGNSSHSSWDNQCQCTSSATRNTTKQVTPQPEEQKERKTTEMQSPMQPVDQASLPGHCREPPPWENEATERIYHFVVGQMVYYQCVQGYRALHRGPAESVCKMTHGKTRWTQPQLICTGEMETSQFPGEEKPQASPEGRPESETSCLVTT
Experiment: Biolayer Interferometry (ForteBio), immobilized His-tagged CD25
Protocol: Polypeptides comprising a modified IL-2 fused to the C-terminus of a PD-1 binding VHH and control polypeptides were tested for binding to CD25 using Biolayer Interferometry (ForteBio).

B1: WT IL-15 (control polypeptide of Example 24) (ligand)
chain: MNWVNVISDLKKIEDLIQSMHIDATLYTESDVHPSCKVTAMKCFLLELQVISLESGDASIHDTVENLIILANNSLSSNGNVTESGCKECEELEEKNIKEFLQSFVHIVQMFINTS
notes: also called IL-15 WT
- binding result: no binding (tested: 300 nM)
